Assay results from the supplement of paper PMC4604168 (melanoma cell lines).
The other results are listed elsewhere or left out. Repeats are few or missing, and single values can be far off.

tested on: C32; assay: cell count relative to DMSO control; melanoma cells; higher = more viable cells; settings: library dose: low library concentration; 72 h
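Further: cell number obtained by counting DAPI-stained nuclei in high-throughput microscope images with image analysis software, screen run in 1,536-well plates.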

| Structure (SMILES) | cell count [%] |
| --- | --- |
| Cc1ccc(Nc2nccc(N(C)c3ccc4c(C)n(C)nc4c3)n2)cc1S(N)(=O)=O [Pazopanib] + COc1ccc(-c2ccc3c(N4CCOCC4)nc(N4C[C@@H](C)O[C@@H](C)C4)nc3n2)cc1CO [KU0063794] (first compound 0.4 µM, partner dose 0.02 µM) | 87.8 |
| O=C(/C=C/c1cccnc1)NCCCCC1CCN(C(=O)c2ccccc2)CC1 + Cn1cncc1[C@@](N)(c1ccc(Cl)cc1)c1ccc2c(c1)c(-c1cccc(Cl)c1)cc(=O)n2C [tipifarnib] (first compound 0.01 µM, partner dose 0.01 µM) | 82.8 |
| Cc1ccc(Nc2nccc(N(C)c3ccc4c(C)n(C)nc4c3)n2)cc1S(N)(=O)=O [Pazopanib] + Oc1nc(-c2ccc(C(F)(F)F)cc2)nc2c1CSCC2 [XAV939] (first compound 0.4 µM, partner dose 2 µM) | 99.2 |
| O=C(/C=C/c1cccnc1)NCCCCC1CCN(C(=O)c2ccccc2)CC1 + COc1ccc2c(c1)CCC1C2CCC2(C)C(NCCCCCCN3C(=O)C=CC3=O)CCC12 [U73122] (first compound 0.01 µM, partner dose 0.4 µM) | 118 |
| CC1(C)CCC(c2ccc(Cl)cc2)=C(CN2CCN(c3ccc(C(=O)NS(=O)(=O)c4ccc(N[C@H](CCN5CCOCC5)CSc5ccccc5)c(S(=O)(=O)C(F)(F)F)c4)cc3)CC2)C1 + NC(=O)c1ccc(N(C(N)=O)c2c(F)cccc2F)nc1-c1ccc(F)cc1F [VX702] (first compound 0.4 µM, partner dose 0.4 µM) | 51.2 |
| CC1(C)CCC(c2ccc(Cl)cc2)=C(CN2CCN(c3ccc(C(=O)NS(=O)(=O)c4ccc(N[C@H](CCN5CCOCC5)CSc5ccccc5)c(S(=O)(=O)C(F)(F)F)c4)cc3)CC2)C1 + CCc1ccc(CCOc2ccc(CC3SC(=O)NC3=O)cc2)nc1 [pioglitazone] (first compound 0.4 µM, partner dose 2 µM) | 47 |
| O=C(/C=C/c1cccnc1)NCCCCC1CCN(C(=O)c2ccccc2)CC1 + Cc1ccc(NC(=O)c2cccc(N(C)C)c2)cc1NC(=O)c1ccc(O)cc1 [ZM336372] (first compound 0.01 µM, partner dose 2 µM) | 108 |
| Cc1ccc(Nc2nccc(N(C)c3ccc4c(C)n(C)nc4c3)n2)cc1S(N)(=O)=O [Pazopanib] + Cc1cc([N+](=O)[O-])ccc1NS(=O)(=O)c1cc(Cl)ccc1Cl [FH535] (first compound 0.4 µM, partner dose 1 µM) | 83.5 |
| CC1(C)CCC(c2ccc(Cl)cc2)=C(CN2CCN(c3ccc(C(=O)NS(=O)(=O)c4ccc(N[C@H](CCN5CCOCC5)CSc5ccccc5)c(S(=O)(=O)C(F)(F)F)c4)cc3)CC2)C1 + CCN(CC)CCCCNc1ncc2cc(-c3cc(OC)cc(OC)c3)c(NC(=O)NC(C)(C)C)nc2n1 [PD173074] (first compound 0.4 µM, partner dose 0.1 µM) | 62.8 |
| O=C(/C=C/c1cccnc1)NCCCCC1CCN(C(=O)c2ccccc2)CC1 + COc1ccc(-c2ccc3c(N4CCOCC4)nc(N4C[C@@H](C)O[C@@H](C)C4)nc3n2)cc1CO [KU0063794] (first compound 0.01 µM, partner dose 0.02 µM) | 89.3 |
| O=C(/C=C/c1cccnc1)NCCCCC1CCN(C(=O)c2ccccc2)CC1 + O=c1cc(-c2cccc3c2Sc2ccccc2S3)oc(N2CCOCC2)c1 [KU55933] (first compound 0.01 µM, partner dose 1 µM) | 83.7 |
| Cc1ccc(Nc2nccc(N(C)c3ccc4c(C)n(C)nc4c3)n2)cc1S(N)(=O)=O [Pazopanib] + COc1ccc(COc2ccc(Cc3cnc(N)nc3N)cc2OC)cc1 [GW2580] (first compound 0.4 µM, partner dose 1 µM) | 107 |
| CC1(C)CCC(c2ccc(Cl)cc2)=C(CN2CCN(c3ccc(C(=O)NS(=O)(=O)c4ccc(N[C@H](CCN5CCOCC5)CSc5ccccc5)c(S(=O)(=O)C(F)(F)F)c4)cc3)CC2)C1 + O=c1cc(-c2cccc3c2Sc2ccccc2S3)oc(N2CCOCC2)c1 [KU55933] (first compound 0.4 µM, partner dose 1 µM) | 74.5 |
| CC1(C)CCC(c2ccc(Cl)cc2)=C(CN2CCN(c3ccc(C(=O)NS(=O)(=O)c4ccc(N[C@H](CCN5CCOCC5)CSc5ccccc5)c(S(=O)(=O)C(F)(F)F)c4)cc3)CC2)C1 + N#Cc1c(O)c2c(-c3ccc(-c4ccccc4O)cc3)csc2[nH]c1=O [A769662] (first compound 0.4 µM, partner dose 2 µM) | 67 |
| CC1(C)CCC(c2ccc(Cl)cc2)=C(CN2CCN(c3ccc(C(=O)NS(=O)(=O)c4ccc(N[C@H](CCN5CCOCC5)CSc5ccccc5)c(S(=O)(=O)C(F)(F)F)c4)cc3)CC2)C1 + c1cc(-c2cnn3cc(-c4ccc(OCCN5CCCCC5)cc4)cnc23)ccn1 [Dorsomorphin] (first compound 0.4 µM, partner dose 0.4 µM) | 42.3 |
| O=C(/C=C/c1cccnc1)NCCCCC1CCN(C(=O)c2ccccc2)CC1 + Cc1cc(Nc2cc(N3CCN(C)CC3)nc(/C=C/c3ccccc3)n2)n[nH]1 [ENMD2076] (first compound 0.01 µM, partner dose 0.04 µM) | 81.4 |
| O=C(/C=C/c1cccnc1)NCCCCC1CCN(C(=O)c2ccccc2)CC1 + CC(C)CCN1c2nc(Nc3cc(F)c(O)c(F)c3)ncc2N(C)C(=O)C1C [BID1870] (first compound 0.01 µM, partner dose 0.2 µM) | 85.8 |
| O=C(/C=C/c1cccnc1)NCCCCC1CCN(C(=O)c2ccccc2)CC1 + Cc1cc([N+](=O)[O-])ccc1NS(=O)(=O)c1cc(Cl)ccc1Cl [FH535] (first compound 0.01 µM, partner dose 1 µM) | 113 |
| Cc1ccc(Nc2nccc(N(C)c3ccc4c(C)n(C)nc4c3)n2)cc1S(N)(=O)=O [Pazopanib] + O=C1NC(=O)/C(=C/c2ccc(-c3ccc(F)cc3O)o2)S1 [AS252424] (first compound 0.4 µM, partner dose 1 µM) | 98.3 |
| CC1(C)CCC(c2ccc(Cl)cc2)=C(CN2CCN(c3ccc(C(=O)NS(=O)(=O)c4ccc(N[C@H](CCN5CCOCC5)CSc5ccccc5)c(S(=O)(=O)C(F)(F)F)c4)cc3)CC2)C1 + O=C(O)C(=O)Nc1sc2c(c1C(=O)O)CCNC2 [TCS401] (first compound 0.4 µM, partner dose 1.66667 µM) | 60.8 |
| Cc1ccc(Nc2nccc(N(C)c3ccc4c(C)n(C)nc4c3)n2)cc1S(N)(=O)=O [Pazopanib] + CCc1ccc(CCOc2ccc(CC3SC(=O)NC3=O)cc2)nc1 [pioglitazone] (first compound 0.4 µM, partner dose 2 µM) | 117 |
| CC1(C)CCC(c2ccc(Cl)cc2)=C(CN2CCN(c3ccc(C(=O)NS(=O)(=O)c4ccc(N[C@H](CCN5CCOCC5)CSc5ccccc5)c(S(=O)(=O)C(F)(F)F)c4)cc3)CC2)C1 + Oc1nc(-c2ccc(C(F)(F)F)cc2)nc2c1CSCC2 [XAV939] (first compound 0.4 µM, partner dose 2 µM) | 73.1 |
| Cc1ccc(Nc2nccc(N(C)c3ccc4c(C)n(C)nc4c3)n2)cc1S(N)(=O)=O [Pazopanib] + COc1ccc2c(c1)CCC1C2CCC2(C)C(NCCCCCCN3C(=O)C=CC3=O)CCC12 [U73122] (first compound 0.4 µM, partner dose 0.4 µM) | 126 |
| CC1(C)CCC(c2ccc(Cl)cc2)=C(CN2CCN(c3ccc(C(=O)NS(=O)(=O)c4ccc(N[C@H](CCN5CCOCC5)CSc5ccccc5)c(S(=O)(=O)C(F)(F)F)c4)cc3)CC2)C1 + O=S(=O)(c1ccccc1)N(CC(F)(F)F)c1ccc(C(O)(C(F)(F)F)C(F)(F)F)cc1 [T0901317] (first compound 0.4 µM, partner dose 1.4 µM) | 53.8 |
| Cc1ccc(Nc2nccc(N(C)c3ccc4c(C)n(C)nc4c3)n2)cc1S(N)(=O)=O [Pazopanib] + COC(=O)c1sccc1S(=O)(=O)Nc1ccc(Nc2ccccc2)cc1OC [GSK0660] (first compound 0.4 µM, partner dose 1 µM) | 103 |
| Cc1ccc(Nc2nccc(N(C)c3ccc4c(C)n(C)nc4c3)n2)cc1S(N)(=O)=O [Pazopanib] + Cn1cc(/C=C2\C(=O)Nc3cccnc32)c2ccccc21 [GW441756] (first compound 0.4 µM, partner dose 0.4 µM) | 102 |
| Cc1ccc(Nc2nccc(N(C)c3ccc4c(C)n(C)nc4c3)n2)cc1S(N)(=O)=O [Pazopanib] + C[C@@H](Oc1cc(-c2cnn(C3CCNCC3)c2)cnc1N)c1c(Cl)ccc(F)c1Cl [Crizotinib] (first compound 0.4 µM, partner dose 0.2 µM) | 103 |
| CC1(C)CCC(c2ccc(Cl)cc2)=C(CN2CCN(c3ccc(C(=O)NS(=O)(=O)c4ccc(N[C@H](CCN5CCOCC5)CSc5ccccc5)c(S(=O)(=O)C(F)(F)F)c4)cc3)CC2)C1 + COc1ccc(-c2ccc3c(N4CCOCC4)nc(N4C[C@@H](C)O[C@@H](C)C4)nc3n2)cc1CO [KU0063794] (first compound 0.4 µM, partner dose 0.02 µM) | 61.3 |
| O=C(/C=C/c1cccnc1)NCCCCC1CCN(C(=O)c2ccccc2)CC1 + N#Cc1c(O)c2c(-c3ccc(-c4ccccc4O)cc3)csc2[nH]c1=O [A769662] (first compound 0.01 µM, partner dose 2 µM) | 84.7 |
